Here are results for 4 molecules from the supplement of paper PMC11741623.

The labels stand for the following.
B1: FUCA1, P04066 (protein)
chain: MRAPGMRSRPAGPALLLLLLFLGAAESVRRAQPPRRYTPDWPSLDSRPLPAWFDEAKFGVFIHWGVFSVPAWGSEWFWWHWQGEGRPQYQRFMRDNYPPGFSYADFGPQFTARFFHPEEWADLFQAAGAKYVVLTTKHHEGFTNWPSPVSWNWNSKDVGPHRDLVGELGTALRKRNIRYGLYHSLLEWFHPLYLLDKKNGFKTQHFVSAKTMPELYDLVNSYKPDLIWSDGEWECPDTYWNSTNFLSWLYNDSPVKDEVVVNDRWGQNCSCHHGGYYNCEDKFKPQSLPDHKWEMCTSIDKFSWGYRRDMALSDVTEESEIISELVQTVSLGGNYLLNIGPTKDGLIVPIFQERLLAVGKWLSINGEAIYASKPWRVQWEKNTTSVWYTSKGSAVYAIFLHWPENGVLNLESPITTSTTKITMLGIQGDLKWSTDPDKGLFISLPQLPPSAVPAEFAWTIKLTGVK
B2: MSRB3, Q8IXL7 (protein)
chain: MSPRRTLPRPLSLCLSLCLCLCLAAALGSAQSGSCRDKKNCKVVFSQQELRKRLTPLQYHVTQEKGTESAFEGEYTHHKDPGIYKCVVCGTPLFKSETKFDSGSGWPSFHDVINSEAITFTDDFSYGMHRVETSCSQCGAHLGHIFDDGPRPTGKRYCINSAALSFTPADSSGTAEGGSGVASPAQADKAEL
B3: CD5L, O43866 (protein)
chain: MALLFSLILAICTRPGFLASPSGVRLVGGLHRCEGRVEVEQKGQWGTVCDDGWDIKDVAVLCRELGCGAASGTPSGILYEPPAEKEQKVLIQSVSCTGTEDTLAQCEQEEVYDCSHDEDAGASCENPESSFSPVPEGVRLADGPGHCKGRVEVKHQNQWYTVCQTGWSLRAAKVVCRQLGCGRAVLTQKRCNKHAYGRKPIWLSQMSCSGREATLQDCPSGPWGKNTCNHDEDTWVECEDPFDLRLVGGDNLCSGRLEVLHKGVWGSVCDDNWGEKEDQVVCKQLGCGKSLSPSFRDRKCYGPGVGRIWLDNVRCSGEEQSLEQCQHRFWGFHDCTHQEDVAVICSG
B4: ING1, Q9UK53 (protein)
chain: MSFVECPYHSPAERLVAEADEGGPSAITGMGLCFRCLLFSFSGRSGVEGGRVDLNVFGSLGLQPWIGSSRCWGGPCSSALRCGWFSSWPPPSKSAIPIGGGSRGAGRVSRWPPPHWLEAWRVSPLPLSPLSPATFGRGFIAVAVIPGLWARGRGCSSDRLPRPAGPARRQFQAASLLTRGWGRAWPWKQILKELDECYERFSRETDGAQKRRMLHCVQRALIRSQELGDEKIQIVSQMVELVENRTRQVDSHVELFEAQQELGDTAGNSGKAGADRPKGEAAAQADKPNSKRSRRQRNNENRENASSNHDHDDGASGTPKEKKAKTSKKKKRSKAKAEREASPADLPIDPNEPTYCLCNQVSYGEMIGCDNDECPIEWFHFSCVGLNHKPKGKWYCPKCRGENEKTMDKALEKSKKERAYNR

The other results are listed elsewhere or left out. Interaction screen of human proteins with wild-type SARS-CoV-2 proteins by split-DHFR complementation in yeast, 1 µg/mL methotrexate. Value = fitness of the pair (three or more lineages) minus that of the viral protein without a human partner, on a scale set by negative (0) and fused positive (1) controls, mean of up to three cultures; higher = more likely to interact. Active = false discovery rate below 0.05 (one-sided t-test) in at least one culture. Nearly all pairs are not hits, and differences among them are mostly noise (correlation between cultures about 0.3); most hits were seen in one culture only. Human sequences are the Swiss-Prot entries looked up by gene name; the clone may be another isoform. NSP2 values were corrected by the authors for a growth advantage. Listed are human proteins with a hit and a random twelfth of the others.

The first test addresses SARS-CoV-2 M. The test can be described thus: yeast fitness gain over the viral ORF with no human partner (scaled fitness); higher = more likely to interact. As for the experimental part:
(§1)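 Split mouse DHFR complementation in pooled diploid yeast: human ORFeome clones carry one fragment and viral ORFs the other; barcoded lineages compete in 1 µg/mL methotrexate and fitness is read by barcode sequencing in up to three cultures.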
Turning to B1, the yeast fitness gain was inactive: -0.242.
In the case of B2, the yeast fitness gain is inactive: -0.0689.
Same read-out and setting: then B3, with inactive: -0.0714.
B4: the yeast fitness gain is inactive: -0.17.

A further test has as its target SARS-CoV-2 N. The description is as above. Here is the method:
as §1
For the molecule B1, the yeast fitness gain is inactive: 0.0135.
Consider B2, for which the yeast fitness gain is inactive: -0.133.

In a further test the target is SARS-CoV-2 NSP10. The test is described as above. As for the experimental part: as §1
B1: the yeast fitness gain was inactive: -0.025.
Take B2: the yeast fitness gain is inactive: -0.0426.
On to B3, for which the yeast fitness gain was inactive: 0.00174.

For a further test, the target named is SARS-CoV-2 NSP13. The test is described as above. Here is the method: as §1
As to B1, the yeast fitness gain is inactive: -0.212.
Turning to B2, the yeast fitness gain is inactive: 0.021.
As for B3, the yeast fitness gain was inactive: 0.0549.
Same read-out and setting: as for B4, the figure is inactive: -0.385.

A further test concerns the target SARS-CoV-2 NSP2. Described as above. As for the experimental part:
as §1
In the case of B1, the yeast fitness gain was inactive: 0.0244.
As to B2, the yeast fitness gain was inactive: -0.0547.
Turning to B3, the yeast fitness gain was inactive: -0.0947.
Turning to B4, the yeast fitness gain is inactive: -0.105.

In a further test the target is SARS-CoV-2 NSP5. Described as above. Here is the method: as §1
For B1, the yeast fitness gain is inactive: -0.0501.
Consider B2, for which the yeast fitness gain was inactive: -0.0203.
As for B3, the yeast fitness gain was inactive: 0.091.
B4: the yeast fitness gain is inactive: 0.00991.

For the next test, the target named is SARS-CoV-2 ORF10. The test is described as above. As for the experimental part: as §1
Consider B1, for which the yeast fitness gain was inactive: -0.0183.
As for B2, the yeast fitness gain is inactive: -0.0468.

In a further test the target is SARS-CoV-2 ORF3B. The description is as above. Here is the method: as §1
Take B1: the yeast fitness gain was inactive: -0.153.
Take B2: the yeast fitness gain was inactive: -0.0896.
Consider B3, for which the yeast fitness gain was inactive: 0.0376.
Same read-out and setting: then B4, with inactive: -0.025.

For another test, the target named is SARS-CoV-2 ORF6. Described as above. As for the experimental part: as §1
As for B1, the yeast fitness gain was inactive: -0.0912.
Regarding B2, the yeast fitness gain was inactive: 0.0129.
As for B3, the yeast fitness gain was inactive: -0.0667.
In the case of B4, the yeast fitness gain was inactive: -0.0578.

The next test addresses SARS-CoV-2 ORF7B. The description is as above. As for the experimental part:
as §1
For the molecule B1, the yeast fitness gain is inactive: -0.0107.
Take B2: the yeast fitness gain is inactive: 0.054.
On the same count and under the same terms, then B3, with inactive: -0.0057.

The target in the next test is SARS-CoV-2 ORF9B. The test is described as above. Here is the method:
as §1
On to B1, for which the yeast fitness gain is inactive: -0.138.
Still for that read-out and setting: then B2, with inactive: 0.0117; and B3, with inactive: -0.0588.
For B4, the yeast fitness gain was inactive: 0.181.

In the next test the target is SARS-CoV-2 S. The test is described as above. As for the experimental part: as §1
Regarding B1, the yeast fitness gain is inactive: -0.107.
For B2, the yeast fitness gain is inactive: -0.0399.
On the same count and under the same terms, as for B3, the figure is inactive: 0.0295.
For B4, the yeast fitness gain is inactive: 0.0156.

Another test deals with SARS-CoV-2 NSP12. The description is as above. As for the experimental part: as §1
Consider B2, for which the yeast fitness gain is inactive: 0.0661.
As for B3, the yeast fitness gain is inactive: 0.107.
Turning to B4, the yeast fitness gain was inactive: -0.217.

In another test the target is SARS-CoV-2 NSP15. The test is described as above. Here is the method: as §1
With B2, the yeast fitness gain is inactive: -0.107.

A further test addresses SARS-CoV-2 NSP16. The test is described as above. As for the experimental part:
as §1
Consider B2, for which the yeast fitness gain is inactive: 0.0328.
For the molecule B3, the yeast fitness gain was inactive: 0.0154.

Another test addresses SARS-CoV-2 NSP4. The test is described as above. As for the experimental part: as §1
Take B2: the yeast fitness gain is inactive: -0.0285.

Another test concerns the target SARS-CoV-2 NSP6. Described as above. As for the experimental part: as §1
Consider B2, for which the yeast fitness gain was inactive: 0.0233.
Still for that read-out and setting: as for B3, the figure is inactive: -0.11.

A further test concerns the target SARS-CoV-2 NSP7. The description is as above. Here is the method:
as §1
B2: the yeast fitness gain was inactive: 0.0799.
For B4, the yeast fitness gain is inactive: -0.258.

Another test addresses SARS-CoV-2 NSP8. The description is as above. As for the experimental part:
as §1
For the molecule B2, the yeast fitness gain is inactive: 0.0368.
With B3, the yeast fitness gain was inactive: -0.0831.
In the case of B4, the yeast fitness gain was inactive: -0.0458.

A further test addresses SARS-CoV-2 NSP9. Described as above. As for the experimental part: as §1
As for B2, the yeast fitness gain is inactive: 0.079.
With B4, the yeast fitness gain is inactive: -0.00398.

For a further test, the target named is SARS-CoV-2 ORF3A. The description is as above. Here is the method: as §1
For B2, the yeast fitness gain is inactive: -0.214.

The next test concerns the target SARS-CoV-2 ORF7A. The description is as above. As for the experimental part:
as §1
For the molecule B2, the yeast fitness gain is inactive: 0.102.
Consider B3, for which the yeast fitness gain was inactive: 0.0711.
On the same count and under the same terms, as for B4, the figure is inactive: -0.11.

For the next test, the target named is SARS-CoV-2 ORF8. Described as above. Here is the method:
as §1
B2: the yeast fitness gain was inactive: 0.03.
The same measure, in the same setting: then B3, with inactive: -0.014; and B4, with inactive: 0.011.

The target of the next test is SARS-CoV-2 ORF9Bwu (the 73-codon ORF). Described as above. Here is the method:
as §1
With B2, the yeast fitness gain was inactive: -0.115.
Same read-out and setting: then B3, with inactive: 0.0172; and B4, with inactive: -0.084.

In another test the target is SARS-CoV-2 NSP1. The test is described as above. Here is the method:
as §1
B3: the yeast fitness gain is inactive: -0.000721.
